# Data reported in the RNAGym collection of RNA variant scans (doi:10.7554/elife.90254).
# Read counts are not given, so values of variants with three or more changes are uncertain.
# B1: OR4K15 (parent)
# chain: GUUAACGGUCAUAGGCCAUGGAAACUAGGAGCACCAUUUCGCUGCCAGUGAAGAAAUGAACAAAGAAAAUCUGGGCCAGGCAGGCAUCAAAAGAAAUAGUCUUGCGCUCAACCAGAAAGUCUGUAAUCAUUUUAAGGGUA
# Variants of: B1
# Test: self-cleavage, relative activity (ratio to wild type); higher = more cleavage; in vitro, sequencing; the parent is a self-cleaving ribozyme
row,Variant,self-cleavage
1,GUUAACGGUCAUAGGCCAUGGAAACCAGGAGCACCAUUUCGCUGCCAGAGAAGAAAUGAACAAAGAAAACCUGGGCCAGGCAGGCAUCAAAGGAAAUAGUCUUGCGCUCAACCAGAAAGUCUGUAAUCAUUUUAAGGGUA,0.42
2,GUUAACGGUCAUAGGCCAUGGAAACUAGGAGCACCAUUUCGCUGCCAGUGAAGAAAUGAACAAAGAAAGUCUGGGCCAGGCAGGUAUCAAAAGAAAUAGUCUUGCGCUCAACCAGGAAGUCUGUAAUCAUUUUAAGGGUA,0.43
3,GUUAGCGGUCAUAGGCCAUGGAAACUAGGAGCGCCGUUUCGCUGCCAGUGAAGAAAUGAACAAAGAAAACCUGGGCCAGGCAGGCAUCAAAAGAAAUAGUCUUGCGCUCAACCAGAAAGUCUGUAAACAUUUUAAGGGUA,0.84
4,GUUAACGGUCAUUGGCCAUGGAAACUAGGAGCACCAUUUCGCUGCCAGUGAAGAAAUGAACAAAGGAAAUCUGGGCCAGGCAGGCAUCAAAAGAAAUAGUCUUGCGCUCAACCAGAAAGUCUGUGAUCACUGUAAGGGUA,0.58
5,GUUAGCGGUCAUAGGCCAUGGAAACUAGGAGCACCAUUUCGCUGCCAGUGAAGAAAUGAACAAAGAAAAUCUGGGCCUGGCAGGCAUCAAAAGAAAUAGUCUUGCGCUCAGCCAGAAAGUCUGUAAUCAUUUUAAGGGUA,0.06
6,GUUAACGGUCAUAGCCCAUGGAAACUAGGAGCGCCAUUUCGCUGCCAGUGAAGAAAUGAACAAAGAAAAUCUGGGCCAGGCAGGCAUCAAAAGAAAUAGUCUUGCGCUCGACCAGUAAGUCUGUAAUCAUUUUAAGGGUA,0.03
7,GUUAACGGUCAUAGGCCAUGGAAACUAGGAGCACCAUUUCGCUGCCAGUGAAGAAAUGAACAAAGAAAAUCUGGGCCAGGCAGGCAUCAAAAGAAGUAGUCUUGCGCUCAGCCAGAAGGUCUGUAAUCAUUUUAAGGGUA,0
8,GUUAACGGUCAUAGGCCAUGGAAACUAGGAGCACCAUUUCGCUGCCAGCGAAGAAAUGAACAAAGAGAAUCUGGGCCAGGCAGGCAUCAAAAGAAAUAGUCUUGCGCUCAACCAGAAAGACUGUAAUCAUUUUAAGGGUA,1.21
9,GUUCACGGUCAUAGGCCAUGGAAACUAGGAGCACCAUUUCGCUGCCAGUGAAGGAACGAACAAAGAGAAUCUGGGCCAGGCAGACAUCAAAAGGAAUAGUCUUGCGCUCAACCAGAAAGUCUGUAAUCAUUUUAAGGGUA,0.72
10,GUUAACGGUCAUAGGCCAUGGAGACUAGGAGCACCAUUUCGCUGCCAGUGAAGAAAUGAACAGAGAACAUCUGGGCCAGGCUGGCAUCAAAAGAAAUAGUCUUGCGCUCAACCAGAAAGUCUGUAAUCAUCUUAAGGGUA,0.28
11,GCUAACGGUCAUAGGCCAUGGAAACUAGGAGCACCAUUUCGCUGCCAGCGAAGAAAUGAACAAAGAAAAUCUGGGCCAGGCAGGCAUCAAAAGAAAUAGUCUUGCGCUCAACCAGAAGGUCUGUAAUCAUUUUAAGGGUA,0.06
12,GUUAACGGUCAUAGGCCAUGGAAACUAGGAGCGCCGUUUCGCUGCCAGUGAGGAAAUGAACAAAGAAAAUCUGGGCCAGGCAGGCAUCAAAAGAAAUAGUCCUACGCUCAACAAGAAAGUCUGUAGUCAUUUUAAGGGUA,0.01
13,GUUAACGGUCAUAGGCCAUGGAAACUAGGAUCACCAUUUCGCUGCCAGUGAAGAGAUGAACAAAGAAAAUCUGGGCCAGGCAGGCAUCAAAAGGAAUAGUCUUGCGCUCAACCAGAAAGUCUGUAAUCAUUUUAAGGGUA,1.46
14,GUUAACAGUCAUAGGCCACGGAUACUAGGAGCACCAUUUCGCUGCCAGUGAAGAAAUGAACAAAGAAAAUCUGGGCCAGGCAGGCAUCAAAAGAAAUAGUCUUGCGCUCAACCAGAAAGUCUGUAAUCAUUUUAAGGGUA,1.47
15,GUUAACGGUCAUAGGCCAUGGAAACUGGGAGCACCAUUUCGCUGCCAGUGAAGAAAUGAACAAAGAAAAUCUGGGCCAGGCAGGCAUCAAAAGAAACAGUCUUGCGCUCAACCAGAUAGUCUGUAAUCAUUUUAAGGGUA,1.28
16,GUUAACGGUCAUAGGCUAUGGAAACUAGGAGCACCACUUCGCUGCCAGUGAAGAAAUGAACAAAGAAGAUCUGGGCCAGGCAGGCAUCAAAAGAAAUAGUCUUGCGCUCAACCAGAAAGUCUGUAAUCAUUUUAAGGGUA,1.23
17,GUUAACGGUCACAGGCCAUGGAAACUAGGAGCACCAUUUCGCUGCCAGUGAAGAAAUGAACAAGGAAAAUCUGGGCCAGGCGGGCAUCAAAAGAAAUAGUCUUGCGCUCAACCAGAAAGUCUGUAAUCAUUUUAAGGGUA,0.46
18,GUUAACGGUCAUAGGCCAUGGAAACUAGGAGCACCAUUUCGCCGCCAGUGAAGAAAUGAACAAAGAAAAUCCGGGCCAGGCAGGCAUCAAAAGAAAUAGUCUUGCGCUCGACCAGAAAGUCUGUAAUCAUUUUAAGGGUA,0.08
19,GUUAACGGUCUUAGGCCAUGGAAACUAGGAGCACCAUUUCGCAGCCAGUGAAGAGACGAACAGAGAAAAUCUGGGCCAGGCAGGCAUCAAAAGAAACAGCCUUGCGCUCAACCAGAAAGUCUGUAACCAUUCUAAGGGUA,1.65
20,GUUAGCGGUCAUAGGCCAUGGAAACUAGGAGCACCAUUUCGCUGCCAGUGAAGAAAUGAACAGAGAAAAUCUGGGCCAGGCAGGCAUCAAAAGAAGUAGUCUUGCGCUCAACCAGAAAGUCUGUAAUCAUUUUAAGGGUA,0.68
21,GUUAGCGGUCAUAGGCCAUGGAAACUAGGAGCACCAUUUCGCUGCCAGUGAAGAAAUGAACAAAGAAAAUCUGGGCCAGGCAGGCACCAAAAGAAAUAGUCUUGCGCUCAACCAGAAAGUCUGUAACCAUUUUAAGGGUA,0.79

row,Variant,self-cleavage
1,GUUAACGGUCAUAGGCCAUGGAAACUAGGAGCACCAUUUCGCUGCCUGUGAAGAAAUGGACAAAGAUAAUCUGGGCCAGGCAGGCAUCAAAAGAAAUAGUCUUGCGCUCAACCAGAAAGUCCGUAAUCAUUUUAAGGGUA,0.68
2,GUUAACGGUCAUAGGCCAUGGAAACUAGGAGCACCAUUUCGCUGCCAGUGAAGAAAUGAACAAAGAAAAUCUGGGCCAGGCAGGCACCAGAAGAAAUAGUCUUGCGCUCAACCAGAAAGUCUGUAAUCAUUUUAAGGGUG,0.36
3,GUUAACGGUCAUAGGCCAUGGAAACUGGGAGCACCAUCUCGCUGCCAGUGGAGAAAUGAACAAAGAAAAUCUGGGCCAGGCAGGCAUCAAAAGAAAUAGUCUUGCGCUCAACCAGAAAGUCUGUAAUCAUUUUAAGGGUA,1.63
4,GUUAACGGUCAUAGGCCAUGGAGACUAGGAGCACCAUUUCGCUGCCAGUGAAGAAAUGAACAAAGAAAAUCUGGGCCAGGCAAGCAUCAAGAGAAAUAGUCUUGCGCUCAACCAGAAAGUCUGUAAUCAUUUUAAGGGUG,1.57
5,GUUAACGGUCAUAGGCCAUGGAGACUAGGAGCACCAUUUCGCUGCCAGUGAAGAAAUGAACAAAGAAAAUCCGGGCCAGGCAGGCACCAAAAGAAAUAGUCUUGCGCUCAACCAGAAAGUCUGUAAUCAUUUCAAGGGUA,0.64
6,GUUAACCGUCAUAGGCCAUGGAGACAAGGAGCACCAUUUCGCCGCCAGUGAAGAAAUGAACAAAGAAAAUCUGGGCCAGGCAGGCAUCAAAAGAAAUAGUCUUGCGCUCAACCAGAAAGUCUGUAAUCAUUUUAAGGGUA,1.01
7,GUUAACGGUCAUAGGCCAUGGAAACUAGGAGCACCAUUUCGCUGCCAGCGAAGAAAUGAUCAAAGAAAAUCUGGGCCAGGCAGGCAUCAAAAGAAAUGGUCUUGCGCUCAACCAGAAAGUCUGUAAUCAUUUUAGGGGUA,0.55
8,GUUAACUGUCAUAGGCCAUGGAAACAAGGAGCACCAUUUCGCUGCCAGUGAAGAAAUGAACAAAGGAAAUCUGGGCCAGGCAGGCAUCAAAAGAAAUAGUCUUGCGCUCAACCAGAAAGUCUGUAAUCAUUCUAAGGGUA,0.77
9,GUUAACGGUCAUAGGCCAUGGAAACUAGGAGCACCAUUUCGCUGCCAGUGGAGAAAUGAACAAAGGAAAUCUGGGCCAGGCAGGCAUCAAAAGAAGUAGUCUUGCGCUCAACCAGAAAGUCUGUAAUCAUUUUAAGGGUA,0.21
10,GUUAACGGUCAUAGGCCAUGGAAACUAGGAGCACCAUUUCGCUGCCAGUGAAGAAAUGAACAAAGAAAAUCUGGGCCAGGCAGGCAUCAAAAGAAUUAGUCUUGCGCUCAACCUGAAGGUCUGUAAUCAUUUUAAGGGUA,0.07
11,GUUAACGGUCAUAGGCCAUGGAAACUAGGAGCACCAUUUCGCUGCCAGUGAAGAAAUGAACUAAGAAAAUCUGGGCCGGGCAGGCAUCAAAAGAAAUAGCCUUGCGCUCAACCAGAAAGUCCGUAAUCAUUUUAAGGGUA,0.28
12,GUUAACGGUCAUGGGCCAUGGAAGCUAGGAGCACCAUUUCGCUGCCAGUGAAGAAAUGAACAAAGAAAAUCUGGGCCAGGCAGGCAUCAAGAGAAAUAGUCUUGCGCUCAACCAGAAAGUCUGUAAUCAUUUUAAGGGUA,1.5
13,GUUAACGGUCAUAGGCCAUGGAAACUAGGAGCACCAUUCCGCUGCCAGUGAAGAAAUGAACAAAGAAAGUCUGGGCCAGGCAGGCACCAAAAGAAAUAGUCUUGCGCUCAACCAGAAAGUCUGUAACCGUUUUAAGGGUA,0.54
14,GUUAACGGUCAUAGGCCAAGGAAACUAGGAGCACUAUUUCGCUGCCAGUGAGGAAACGAACAAAGAAAAUCUGGGCCAGGCAGGCAUCAAAAGAAAUAGUCUUGCGCUCAACCAGAAAGUCUGUAAUCAUUUUAAGGGUA,0.71
15,GUUAACGGUCAUAGGCCAUGGAAACUAGGAGCACCAUUUCGCUGCCAGUGAAGAAAUGAACAAAGAAAAUCUAGGCCAGGCAGGCAUCAAAAGAAUUAGUCUCGCGCUCAACCAGAAAGUCUGUAAUCAUUUUAAGGGUA,0.15
16,GUUAACGGUCAUAGGCCAUGGAAACUAGAAGCACCAUUUCGCUGCCAGUGAAGAAAUGAACAAAGAAAAUCCGGGCCAGGCAGGCAUCGAAAGAAAUAGUCUUGCGCUCAACCAGAAAGUCUGUGAUCACUUUAAGGGUA,0.02
17,GUUAACGGUCAUAGGCCAUGGAAACUAGGAGCACCAUUUCGCUGCCAGUGAAGAGAUGAGCAAAGAAAAUCUGGGCCAGGCAGGCAUCAAAAGAAAUAGUCUUGCGCUCAACCAGAAGGUCUGUAAUCAUCUUAAGGGUA,1.97
18,GUUAACGGUCAUAGGCCAUGGAAACUGGGAGCACCAUUUCGCUGCCAGUGAAGAAAUGCACAAAGAGAAUCUGGGCCAGGCAGGCACCAAAAGAAAUAGUCUUGCGCUCAACCAGAAAGUCUGUAAUCAUUUUAAGGGUA,0.75
19,GUUAACGGUCAUAGGCCAUGGAAACUAGGAGCGCCAUUUCGCUGCCAGUGAGGAAACGAACAAAGAAAAUCCGGGCCAGGCAGGCAUCUAAAGAAAUAGUCUUGCGCUCAACCAGGAAGUCUGUAAUCAUUUUAAGGGUA,0.05
20,GUUAACGGUCAUAGGCCAUGGAAACUAGGAGCACCAUUUCGCUGCCAGUGAAGAAAUGAACAAAGAAAAUCUGGGCCAGGCAGGCAUCAGAAGAGAUAGUCUUGCGCUCAACCAGAAAGUCCGUAAUCAUAUUAAGGGUA,1.96
